Source: PubChem BioAssay AID1508624 (National Center for Advancing Translational Sciences (NCATS), 2021)
Out of some 48,000 compounds screened, about 120 (0.25%) were called active. Inconclusive results (about 4%) are left out. Calls follow the shape of the dose curve; as a rule, active = well fitted activation curve with a large enough effect; inconclusive = small, poorly fitted or top-dose-only effect, or another doubt; inactive = no such curve, though single readings can be large or run the other way. The list shows a part of the results.

assay: Primary qHTS for Identification of Small Molecule Activators of Huntingtin-Antisense Promoter Activity; details: HEK293 HTT-AS promoter firefly luciferase reporter, 24 h; series mostly up to 57.5 µM; activity change, positive = activation: at the top concentration; also: nearly all actives have a fitted effect of over 55% in size
How it was run: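 Firefly luciferase readout (Dual-Glo, 10 min RT) after 24 h, 37 °C compound exposure (final up to 57.5 uM) of HEK293 reporter cells cultured 24 h beforehand; PTC124 at 50 uM final as control inhibitor; activity scaled vehicle 0%, zero RLU -100%.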

Activity change, positive = activation, inactive:
Cc1cccc(NC(=O)C2CCCN2S(=O)(=O)c2cccc3nsnc23)c1C (configuration not stated) -19.5% [at 11.5 µM, percent change from vehicle, -100% = no light]
COc1ccc(-n2nc(C(=O)NCCc3ccc(Cl)cc3)c3c4ccccc4n(C)c3c2=O)cc1 3.86%
Cc1ccc(NC(=O)Cn2c(=O)n(CCC(=O)N3CCc4ccccc4C3)c(=O)c3ccccc32)c(C)c1 -24.4%
COc1ccc(C2c3c(-c4ccccc4)n[nH]c3C(=O)N2c2ccc(C(=O)O)cc2)c(OC)c1 (configuration not stated) -15%
COc1cc(NC(=O)Cn2c(-c3ccccc3)cc(C(C)=O)c2C)cc(OC)c1 -13.6%
Cc1ccc(-c2cnc(C3CC3)o2)cc1S(=O)(=O)Nc1cccc(C#N)c1 -60.8%
COC(=O)c1ccc2c(c1)sc(=NC(=O)c1ccc(S(=O)(=O)N3CCCCC3)cc1)n2C 0.392%
CN(Cc1ccccc1)C(=O)CSc1c2c(nc3ccc(Cl)cc13)CCCC2 -48.2%
Cc1ccc(-c2c(CN3CCN(c4cccc(C)c4C)CC3)csc2C)cc1 -17.8%
Cc1ccc(NC(=O)c2cccc(C(C)(C)C#N)c2)cc1Nc1ccc2ncn(C)c(=O)c2c1 -30.9%
O=C(COc1ccc(F)cc1)Nc1ccc(OCc2cc(=O)n3ccsc3n2)cc1 -2.65%
Cc1ccc(CNC(=O)CN2Cc3ccccc3C2=O)cc1 6.48%
Cc1ccccc1NC(=O)Cn1c(=O)n(CCC(=O)N2CCc3ccccc3C2)c(=O)c2ccccc21 -12.1%
CCC1CN(C(=O)N2CCC(C(=O)NCCCc3ccccc3)CC2)c2cc(C)ccc2O1 (configuration not stated) -42%
COc1ccc(NS(=O)(=O)c2cc(-c3onc(C)c3C)ccc2C)c(OC)c1 -41.2%
COc1ccc(NC(=O)CCS(=O)(=O)c2cc3c(cc2C)NC(=O)CO3)cc1Cl -7.56%
CCCc1cnc2c(c1SCC(=O)Nc1ccc([N+](=O)[O-])cc1)c(=O)n(C)c(=O)n2C -19.6%
Cc1ccc(Cl)cc1NC(=O)c1sc2nc(C)c(C)c(C)c2c1N 21.7%
CCOC(=O)c1ccccc1NC(=O)N(Cc1ccc(CC)cc1)Cc1cn[nH]c1-c1ccc(OC)cc1 -11.7%
N#Cc1ccccc1Cn1c(SCC(=O)NCc2ccccc2)nc2ccccc21 -11.7%
CCOc1ccc(CCNC(=O)CSCc2nc(-c3cccc(C)c3)oc2C)cc1OCC -28.6%
CCc1cccc2c(-c3ccccc3)nc(SCC(=O)Nc3ccc(OC)cc3)nc12 -7.12%
CC1CCN(C(=O)Cn2c(=O)n(-c3ccc(Cl)cc3)c(=O)c3c4c(sc32)CCC4)CC1 -1.82%
C[N+](C)(C)CC(=O)O -10.2%
CCOc1ccc2nc(NC(=O)c3nc(SC(C)C)ncc3Cl)sc2c1 9.57%
O=C(Cn1c(=O)c2cccn2c2ccc(F)cc21)NCc1cccc(Cl)c1 -10.8%
O=C(O)c1ccccc1C(=O)Nc1ccc(S(=O)(=O)Nc2nccs2)cc1 -13.2%
CC(C)N(Cc1ccccc1)S(=O)(=O)c1ccc(N2CCCCS2(=O)=O)cc1 -15.3%
CN(C)S(=O)(=O)c1ccc(C(=O)N(Cc2cccnc2)c2nc3c(F)cc(F)cc3s2)cc1 -19.9%
CC(C)NC(=O)CCSc1nc(-c2ccc3c(c2)OCO3)cc(C(F)(F)F)n1 -40.9%
Cc1cccc(C)c1NC(=O)CSc1nc(-c2cccs2)cc(C(F)(F)F)n1 -12.3%
Cc1cn2c(=O)cc(COc3ccc(C(C)(C)C)cc3)nc2s1 -18%
CC(C)CCn1c(SCc2c(F)cccc2Cl)nc2ccsc2c1=O -7.18%
O=C(Nc1ccc(F)c(Cl)c1)C1CCCN(S(=O)(=O)c2cccc3nsnc23)C1 (configuration not stated) -38.9%
CN(c1nccc(=O)[nH]1)C1CCN(c2nc3ccccc3n2Cc2ccc(F)cc2)CC1
CCOc1ccccc1N(CC)C(=O)c1ccc2c(=O)n3c(nc2c1)CCCCC3 -17.4%
CCOC(=O)c1cc2c(=O)n3ccccc3nc2n(CC(C)C)c1=NC(=O)C(C)Oc1ccccc1 (configuration not stated) 15.1%
Cc1ccc(Nc2ccc(N3CCN(C(=O)c4ccc([N+](=O)[O-])cc4Cl)CC3)nn2)cc1 -28.6%
CCOc1ccc(NC(=O)CCS(=O)(=O)c2cc3c4c(c2)CCN4C(=O)CC3)cc1 -0.401%
CCc1ccccc1NC(=O)CCc1c(C)nc2cc(-c3ccccc3)nn2c1C -56.9%
Cc1nnc(N2CCN(C(=O)Nc3cc(F)ccc3F)CC2)c2nn(-c3ccc(Cl)cc3)c(C)c12 -51.3%
CC(=O)OC(C)OC(=O)C(C)c1ccc(-c2ccccc2)c(F)c1 (configuration not stated) 2.64%
O=C(NC1CC(=O)N(c2ccc(Cl)cc2)C1)C(=O)c1c[nH]c2ccccc12 (configuration not stated) -28.2%
CC(=O)N1CCc2c(sc3c2c(=O)n(CCc2ccccc2)c(=O)n3Cc2ccc(F)cc2)C1 -41.5%
Cc1ccccc1NC(=O)Cn1c(=O)n(CCCCCC(=O)NCc2ccc3c(c2)OCO3)c(=O)c2sccc21 -31.3%
Cc1c(Cl)cccc1NC(=O)CSc1nc(=O)n(CCN2CCOCC2)c2c1CCC2 -13.2%
CCOc1ccc(NC(=O)c2sc3nc(-c4ccc(OC)cc4)cn3c2C)cc1 8.96%
COc1ccc(-n2ccn(CC(=O)Nc3ccccc3C(F)(F)F)c(=O)c2=O)cc1OC 0.474%
COc1cc(NC(=O)C2CCCN(S(=O)(=O)c3cn(C)cn3)C2)cc(OC)c1 (configuration not stated) -6.73%
O=C(COc1ccccc1)OCc1cc(=O)n2nc(-c3cccs3)sc2n1 9.22%
CC(C)OC(=O)OCOP(=O)(CO[C@H](C)Cn1cnc2c(N)ncnc21)OCOC(=O)OC(C)C
Cc1c(Cl)cccc1NC(=O)c1cc2nc(-c3ccc4c(c3)OCO4)cc(C(F)(F)F)n2n1 -5.7%
Cc1ccccc1NC(=O)c1ccc(N(Cc2ccccc2)S(C)(=O)=O)cc1 -46.6%
COc1ccc(CNC(=O)c2cnc3ccc(C)cn3c2=O)cc1 -1.27%
O=C(NCc1ccc2c(c1)CCN2C(=O)c1ccncc1)c1ccccc1F -16.7%
COC(=O)c1ccccc1NC(=O)CCS(=O)(=O)c1nc(-c2ccc3c(c2)OCO3)cc(C(F)(F)F)n1 -56.1%
COc1ccccc1CNc1ncnc2c1nnn2C -1.44%
CCOCCCn1c(=N)c(S(=O)(=O)c2ccc(Cl)cc2)cc2c(=O)n3cccc(C)c3nc21 -2.75%
COC(=O)c1c(-c2cccs2)csc1NC(=O)c1ccc(C(C)C)cc1 3.44%
Cc1ccc(NC(=O)CCS(=O)(=O)c2ccc3c(c2)oc(=O)n3C)c(Br)c1 -3.29%
COc1ccc(NC(=O)c2cc3c(C)nn(-c4ccccc4)c3s2)c(OC)c1 -9.42%
Cc1c(Cl)cccc1Nc1nn2c(=O)c3ccc(C(=O)N(C)Cc4ccccc4)cc3nc2s1 -23.3%
CCOc1cc(S(=O)(=O)NCCc2c(C)[nH]c3ccc(C)cc23)ccc1Br -28.1%
Cc1cc(C)cc(-n2c(SCC(=O)NC3CCCCC3)nc3c([nH]c4ccccc43)c2=O)c1 -7.35%
CC(=O)c1cccc(NS(=O)(=O)c2cccc(S(=O)(=O)c3ccc(Br)cc3)c2)c1 -53.9%
COc1ccc(N2CCN(C(=O)CSCc3ccc(C)cc3)CC2)cc1 -6.51%
COc1ccc(-c2nc(CSCC(=O)N3CCN(c4ccccc4)CC3)c(C)o2)cc1 -56.6%
O=c1[nH]c(SCc2c(F)cccc2Cl)nc2c1CCCC2 -21.4%
COCCNC(=O)c1[nH]c2cc(C)ccc2c1Sc1ccc(Cl)cc1 10%
O=C(Nc1cccc(-c2nc3ccccc3o2)c1)c1cccc2c(Cl)cccc12 -14.1%
CCOC(=O)c1ccc(NC(=O)CCc2nc3cccnc3n2Cc2cccs2)cc1 -20.6%
Cc1ccc(S(=O)(=O)c2cn(CC(=O)Nc3ccc(Cl)cc3)c3ccc(F)cc3c2=O)cc1C -8.2%
C[C@@]12CCC[C@H]1[C@@H]1CC[C@H]3C[C@@H](O)CC[C@]3(C)[C@H]1CC2 -4.87%
COc1cc(C2CC(=O)Nc3c2c(=O)n(C)c2ncnn32)cc(OC)c1OC (configuration not stated) -2.98%
CCOC(=O)c1c(NC(=O)c2cc(CC)on2)sc(C(C)=O)c1C -9.78%
CC(=O)c1ccc(N2CCN(c3ccc4cc(S(=O)(=O)N5CCC(C)CC5)ccc4n3)CC2)cc1 -18.1%
CSc1ccc(CCNC(=O)c2c(C)oc3ncn(C)c(=O)c23)cc1 1.66%
COc1ccc(CCN2CCC(CNC(=O)c3cnn(-c4cccc(Cl)c4)c3C3CCN(C(=O)OC(C)(C)C)CC3)CC2)cc1 -27%
O=C(CN1c2ccccc2S(=O)(=O)c2ccccc21)Nc1cccc(C(F)(F)F)c1 -17.4%
Cc1cccc(Cn2c(Cc3ccccc3)nc3ccccc32)c1 -24.4%
COc1ccc(N2CCN(C(=O)C3CCN(c4nc5ccc(C)cc5[nH]4)CC3)CC2)cc1 -40.4%
O=C(NCc1ccc(F)cc1)c1ccc2oc(=O)n(Cc3ccccc3)c2c1 -18.2%
COc1ccccc1NC(=O)C(=O)NCC(c1cccnc1)N1CCc2ccccc2C1 (configuration not stated) -8.89%
COc1cccc(CNC(=O)Cn2c(=O)oc3cc(S(=O)(=O)N4CCCCCC4)ccc32)c1 -24.3%
C[C@@H]1[C@H](C)CC[C@]2(C(=O)O)CC[C@]3(C)C(=CC[C@@H]4[C@@]5(C)CC[C@H](O)C(C)(C)[C@H]5CC[C@]43C)[C@@H]12 -18.7% [at 116 µM, percent change from vehicle, -100% = no light]
CC(=O)Nc1nonc1-c1nnc(SCc2ccccc2)n1C -12.2%
COc1ccc(-n2nc(C(=O)Nc3cc(C)ccn3)c3c4ccccc4n(C)c3c2=O)cc1Cl -3.05%
CCc1ccc(NC(=O)Cn2c(=O)c3cc(Cl)ccc3n3nncc23)cc1 -1.63%
CCOc1ccc(-c2cc(C(=O)NCCc3ccc(OC)c(OC)c3)[nH]n2)cc1 -0.98%
CN1CC(=O)N(CC(=O)Nc2ccc(OC(F)(F)F)cc2)c2ccccc2C1=O -10.4%
O=c1c2oc3ccccc3c2n(Cc2cccc(F)c2)c(=O)n1Cc1ccc2c(c1)OCO2 -25.6%
Cc1ccccc1CNC(=O)C(=O)NCC(c1cccs1)S(=O)(=O)c1cccs1 (configuration not stated) -35.6%
